Counter-ions that a name gives are not always drawn. The list shows a part of the results. Rule as the data show it: active = -2 or less and inactive = the rest. Single values are uncertain, as repeats are few or missing.
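Also: nuclei counted from DAPI counterstain by automated high-content image analysis, four fields per well at ×20 in 384-well plates, with sequential b-score then z-score normalization.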

This test relates to hPSC-derived cortical neurons (WA09). Put plainly: nuclei number (viability) z-score; higher = more surviving cells. Particulars: 5 µM; treatment: days 7-14 after plating, readout day 21.
With `CC1(C)CC(=O)c2c(C(F)(F)F)nn(-c3ccc(C(N)=O)c(N[C@H]4CC[C@H](O)CC4)c3)c2C1`, the “nuclei number (z-score)” value is active: -7.88. The figure for `CCCCc1nc2cc(/C=C/C(=O)NO)ccc2n1CCN(CC)CC` [Pracinostat (SB939)] is active: -3.47; for `COc1cc2nc(N(C)CCCNC(=O)C3CCCO3)nc(N)c2cc1OC` (stereo not drawn) [Alfuzosin HCl] it is inactive: -0.812. For `COc1ccc(-c2ccc3ncc4c(c3c2)n(-c2ccc(N3CCNCC3)c(C(F)(F)F)c2)c(=O)n4C)cn1`, the “nuclei number (z-score)” value is active: -5.01. For `CC(C)c1cc(-c2n[nH]c(=O)n2-c2ccc3c(ccn3C)c2)c(O)cc1O` [Ganetespib (STA-9090)] the value was active: -3.71; for `CC(=O)O[C@]1(C(C)=O)CC[C@H]2[C@@H]3C=C(Cl)C4=CC(=O)[C@@H]5C[C@@H]5[C@]4(C)[C@H]3CC[C@@]21C` [Cyproterone Acetate], inactive: -0.645. The figure for `N[C@H]1C[C@@H]1c1ccc(-c2cccc(O)c2)cc1` is inactive: 0.0393; for `Cn1cc(-c2cnn3c(N)c(Br)c([C@@H]4CCCNC4)nc23)cn1` it is inactive: 0.481. For `N[C@@H]1CONC1=O` [D-Cycloserine] the value was inactive: 0.439.

For `C=C1C[C@@]2(O)O[C@@]3(C[C@H]2C(C)C)[C@@H](C)CC[C@@H]13` [Curcumol], the “nuclei number (z-score)” value is inactive: -0.693. The figure for `O=C(O)COCCN1CCN(C(c2ccccc2)c2ccc(Cl)cc2)CC1` (stereo not drawn) [Cetirizine DiHCl] is inactive: -0.0152; for `CCCSc1nc(N[C@@H]2C[C@H]2c2ccc(F)c(F)c2)c2nnn([C@@H]3C[C@H](OCCO)[C@@H](O)[C@H]3O)c2n1` [Ticagrelor] it is inactive: 0.463. The figure for `C=CC(=O)Nc1cccc(Nc2nc(Nc3ccc(Oc4ccnc(C(=O)NC)c4)cc3)ncc2F)c1` is inactive: -0.401; for `CC(=O)O[C@@]12CO[C@@H]1C[C@H](O)[C@@]1(C)C(=O)[C@H](O)C3=C(C)[C@@H](OC(=O)[C@H](O)[C@@H](NC(=O)OC(C)(C)C)c4ccccc4)C[C@@](O)([C@@H](OC(=O)c4ccccc4)[C@H]21)C3(C)C` [Docetaxel] it is inactive: 0.113; for `CC(=O)O[C@@]12CO[C@@H]1C[C@H](O)[C@@]1(C)C(=O)[C@H](O)C3=C(C)[C@@H](OC(=O)[C@H](O)[C@@H](NC(=O)OC(C)(C)C)c4ccccc4)C[C@@](O)([C@@H](OC(=O)c4ccccc4)[C@H]21)C3(C)C` [Docetaxel Trihydrate] it is inactive: -0.613. `O=C(/C=C/c1ccccc1)NC(NC(=S)Nc1cccc2cccnc12)C(Cl)(Cl)Cl` (stereo not drawn) [Salubrinal]: the “nuclei number (z-score)” value was inactive: 0.0825. The figure for `CN(C)CCN(Cc1ccccc1)c1ccccn1` [Tripelennamine HCl] is inactive: -0.38; for `CC1CNc2c(cccc2S(=O)(=O)N[C@@H](CCCNC(=N)N)C(=O)N2CC[C@@H](C)C[C@@H]2C(=O)O)C1` (stereo partly drawn) [Argatroban] it is inactive: -0.771. The figure for `CO[C@H]1C[C@@H]2CC[C@@H](C)[C@@](O)(O2)C(=O)C(=O)N2CCCC[C@H]2C(=O)O[C@H]([C@H](C)C[C@@H]2CC[C@@H](OCCO)[C@H](OC)C2)CC(=O)[C@H](C)/C=C(\C)[C@@H](O)[C@@H](OC)C(=O)[C@H](C)C[C@H](C)/C=C/C=C/C=C/1C` [Everolimus (RAD001)] is inactive: -0.931; for `Fc1ccc(Cl)cc1-c1nc(Nc2ccncc2)c2nccnc2n1` it is inactive: 4.85; for `Nc1ccn([C@@H]2O[C@H](CO)[C@@H](O)C2(F)F)c(=O)n1` [Gemcitabine HCl] it is active: -5.79. `Nc1ccn([C@@H]2O[C@H](CO)[C@@H](O)C2(F)F)c(=O)n1` [Gemcitabine]: the “nuclei number (z-score)” value was active: -4.42. For `COc1ccccc1N1CCN(CCN(C(=O)C2CCCCC2)c2ccccn2)CC1` the value was inactive: 0.253; for `Cc1cc(C)c(Nc2ccnc(Nc3ccc(C#N)cc3)n2)c(C)c1` [Dapivirine (TMC120)], inactive: 6.23; for `Cc1cc(/C=C2/SC(=S)NC2=O)c(C)n1-c1cccnc1` [Optovin], inactive: 0.41. The figure for `C[C@@H](NC(=O)c1ncnc(N)c1Cl)c1ncc(C(=O)Nc2cc(C(F)(F)F)c(Cl)cn2)s1` is inactive: 0.908. For `Clc1ccc(CSC(Cn2ccnc2)c2ccc(Cl)cc2Cl)cc1` (stereo not drawn) [Sulconazole Nitrate] the value was inactive: -1.52; for `O=C(c1ccc(Nc2nccc(-c3cc4ccccc4s3)n2)cc1)N1CCC(N2CCCC2)CC1` [IKK-16 (IKK Inhibitor VII)], active: -5.35. `Nc1ncnc2c1ncn2[C@@H]1O[C@H](CO)[C@@H](O)[C@H]1O` [Adenosine]: the “nuclei number (z-score)” value was inactive: 0.487. The figure for `N=C(N)NC(=O)Cc1c(Cl)cccc1Cl` [Guanfacine Hydrochloride] is inactive: 0.392; for `O=C1Nc2ccccc2/C1=C1/Nc2ccccc2C1=O` [Indirubin] it is inactive: -1.27.

On to `COc1cc(C(=O)O)ccc1NC(=O)[C@@H]1N[C@@H](CC(C)(C)C)[C@](C#N)(c2ccc(Cl)cc2F)[C@H]1c1cccc(Cl)c1F` [Idasanutlin (RG-7388)], for which the “nuclei number (z-score)” value was inactive: 0.319. The figure for `O=C(O)C(O)Cc1ccc(O)c(O)c1` (stereo not drawn) [Sodium Danshensu] is inactive: 2.17; for `N[C@@H](Cc1cc(I)c(Oc2cc(I)c(O)c(I)c2)c(I)c1)C(=O)O` [L-Thyroxine] it is inactive: 1.59; for `CC1(C)CCC(C)(C)c2cc(NC(=O)c3ccc(C(=O)O)cc3)ccc21` [Tamibarotene] it is inactive: 1.24.

With `Oc1ccc(OC2CCCCO2)cc1` (stereo not drawn) [Deoxyarbutin], the “nuclei number (z-score)” value was inactive: 0.549. For `Nc1cccc2c1C(=O)N(C1CCC(=O)NC1=O)C2=O` (stereo not drawn) [Pomalidomide] the value was inactive: 0.0222; for `COc1cc(O)c(C(=O)c2ccccc2)cc1S(=O)(=O)O` [Sulisobenzone], inactive: 1.44.

In the case of `CN(C)CCOC(c1ccccc1)c1ccccc1` [Diphenhydramine HCl], the “nuclei number (z-score)” value was inactive: 0.578. The figure for `CN1CCN(C(=O)C2C(C(=O)O)[C@H]3CC[C@@H]2O3)CC1` (stereo partly drawn) is inactive: 0.627; for `COc1ccc2[nH]c([S+]([O-])Cc3ncc(C)c(OC)c3C)nc2n1` (stereo not drawn) [Tenatoprazole] it is inactive: -0.0211.

As for `CCOC(=O)CCNc1cc(N2CCc3ccccc3CC2)nc(-c2ccccn2)n1`, the “nuclei number (z-score)” value was active: -2.01.

Turning to `CN(C)CC/C=C1/c2ccccc2Sc2ccc(Cl)cc21` [Chlorprothixene], the “nuclei number (z-score)” value is inactive: 0.203. The figure for `CC(=O)[C@H]1CC[C@H]2[C@@H]3CCC4=CC(=O)CC[C@]4(C)[C@H]3CC[C@]12C` [Progesterone] is inactive: -0.512. The figure for `Cn1cc(CNCC2CCN(c3ncc(C(=O)NO)cn3)CC2)c2ccccc21` is active: -2.81; for `O=C(O)CSc1nnc(Br)n1-c1ccc(C2CC2)c2ccccc12` [Lesinurad] it is inactive: 0.594; for `CCN(CC)C(=O)c1cccc(C)c1` it is inactive: -1.13.

Take `CCCN(CCC)S(=O)(=O)c1ccc(C(=O)O)cc1` [Probenecid]: the “nuclei number (z-score)” value was inactive: 0.494.

As for `CCNC(=O)Nc1ccc(-c2nc3c(c(N4CCOC[C@@H]4C)n2)CCN(C2COC2)C3)cc1`, the “nuclei number (z-score)” value was inactive: -1.36. For `C[C@]12CC[C@@H]3c4ccc(O)cc4CC[C@H]3[C@@H]1CC[C@@H]2O` [Estradiol] the value was inactive: 0.468; for `CCNC(=O)c1[nH]nc(-c2cc(Cl)c(O)cc2O)c1-c1ccc(OC)cc1`, active: -2.04; for `CC(C)c1ccc(NC(=O)Cn2cnc3c2c(=O)n(C)c(=O)n3C)cc1`, inactive: 0.349. The figure for `C[C@H](NC(=O)/C(C#N)=C/c1cccc(Br)n1)c1ccccc1` is inactive: 0.193; for `CO/N=C(\C(=O)N[C@@H]1C(=O)N2C(C(=O)OCOC(=O)C(C)(C)C)=C(/C=C\c3scnc3C)CS[C@H]12)c1csc(N)n1` [Cefditoren Pivoxil] it is inactive: 2.85. The figure for `O=C(Nc1ccccc1)c1cc([N+](=O)[O-])ccc1Cl` is inactive: -0.0242. In the case of `C=C1C(=O)O[C@@H]2/C=C(\C)CC/C=C(\C)CC[C@@H]12` [Costunolide], the “nuclei number (z-score)” value was inactive: -1.09. For `CCCc1cc(=O)[nH]c(=S)[nH]1` [Propylthiouracil] the value was inactive: -0.179; for `COc1ccc(CCN(C)CCCC(C#N)(c2ccc(OC)c(OC)c2)C(C)C)cc1OC` (stereo not drawn) [Verapamil HCl], inactive: -0.282; for `Cc1onc(-c2ccccc2)c1-c1ccc(S(N)(=O)=O)cc1` [Valdecoxib], inactive: -0.081. The figure for `N[C@@H](CSCCB(O)O)C(=O)O` is inactive: 0.132.

As for `C[C@]12CCC(=O)C=C1CC[C@@H]1[C@@H]2[C@@H](O)C[C@@]2(C)[C@H]1CC[C@]2(O)C(=O)CO` [Hydrocortisone], the “nuclei number (z-score)” value is inactive: -0.483. For `C=CC(=O)Nc1cccc(C)c1Nc1ncc2cc(-c3c(Cl)c(OC)cc(OC)c3Cl)ccc2n1` the value was inactive: -0.103.

As for `COc1cc(-c2cn(C)c(=O)c3cnccc23)cc(OC)c1CN(C)C`, the “nuclei number (z-score)” value is inactive: 0.747. For `CCOC(=O)C1=C[C@@H](OC(CC)CC)[C@H](NC(C)=O)[C@@H](N)C1` [Oseltamivir Phosphate] the value was inactive: 2.09.

With `C=C[C@]1(C)C[C@@H](OC(=O)CS[C@@H]2C[C@H]3CC[C@@H](C2)N3C)[C@]2(C)[C@H](C)CC[C@]3(CCC(=O)[C@H]32)[C@@H](C)[C@@H]1O` [Retapamulin], the “nuclei number (z-score)” value was inactive: 0.0348. In the case of `Oc1ncnc2[nH]ncc12` [Allopurinol], the “nuclei number (z-score)” value was inactive: -0.792.

Take `CN(N=O)C(=O)NC1C(O)OC(CO)C(O)C1O` (stereo not drawn) [Streptozotocin (STZ)]: the “nuclei number (z-score)” value was inactive: -0.385. For `O=C(CCc1ccc(O)cc1)c1c(O)cc(O)cc1O[C@@H]1O[C@H](CO)[C@@H](O)[C@H](O)[C@H]1O` [Phlorizin] the value was inactive: 0.118.

(Values after the supplement of paper PMC11348887.)
